The supplement of paper PMC10126150
Sequences with one replicate were seen in a single cluster, so their values are uncertain.

Test system: ATP
Assay: switch fluorescence ratio, 500 uM ATP over buffer (Cy3 cluster intensity, sum of 5 cycles each) (fold (ratio)); higher = stronger signal-on switching upon ATP binding; sequences stand for … in TCGTCGGCAGCGTCAGATGTGTATAAGAGACAGTTTTTTTTTTTTTTTTTTTTTTTTT…TC
Settings: aptamer strand: ATP DNA aptamer (quencher-CACCTGGGGGAGTATTGCGGAGGAAGG + anchor), 100 nM annealed; ATP concentration: 500 uM; one replicate
Method in brief: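 Values give the fluorescence ratio for each switch-domain sequence, averaged from per-cluster ratios of summed target-cycle to summed buffer-cycle Cy3 intensity. The Cy3-labelled switching-strand clusters sat on a modified Illumina MiSeq flow-cell, were annealed to 100 nM quencher-labelled ATP aptamer, and were imaged in selection buffer, then after 15 min with 500 uM ATP at 22 °C. Five cycles ran with NaOH stripping and re-annealing between them, and clusters outside 100-1000 RFU were excluded.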
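Further: ATP exposure 15 min at 22 °C before imaging.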

Row | Sequence | switch fluorescence ratio
1 | GAGACCCGTT | 0.989
2 | TTGAGGCCCT | 1
3 | GCCTGATGTT | 0.942
4 | TGCGGAAGGA | 1.29
5 | TGATCCGATA | 1.01
6 | CTAGTGCCGA | 0.942
7 | CGCCTCAAGT | 1.04
8 | GGGTGCTGGT | 0.961
9 | ATACGGGTGA | 1.01
10 | CACTTTCACT | 1.08
11 | TTGGATAA | 1
12 | ATTATGTCAA | 1.01
13 | TAAAATGCCT | 1.12
14 | AGGAGAAA | 1.02
15 | AAATCATGCA | 1.04
16 | GCTTCACACG | 1.04
17 | GAAGCCCCTC | 1.05
18 | ACCGGAACAA | 2.02
19 | CTAATATATG | 0.966
20 | CCTTCGTTCG | 3.36
21 | GACTCTGGTT | 1
22 | GAAATAGTCG | 0.997
23 | GAGAGGGCGA | 1.01

Row | Sequence | switch fluorescence ratio
24 | GGGGAACGCA | 1.17
25 | CCGAGCGGTG | 2
26 | GGGATTCCCA | 0.917
27 | GTGGAGGTAG | 0.998
28 | TAGTCCGT | 1.02
29 | TTTTCTTACC | 1.05
30 | AGGTGTATAT | 1.04
31 | TAAGTTCCGA | 1.06
32 | CGAGGTTC | 0.957
33 | AGTGGATTGA | 1.04
34 | ACAATGTGAG | 1.03
35 | AGACAAAGTT | 1.01
36 | GCCACGGGAC | 1.38
37 | ATAGGGTCGC | 0.972
38 | CACTCAGTAG | 1.07
39 | GATGTTCTAA | 1.02
40 | ATTGTGCAAA | 1.02
41 | TTGGTGATAT | 1.05
42 | GCTACACCGA | 1.06
43 | GGGGCTCAGG | 1.08
44 | ATCGGTTCAT | 1.03
45 | AATGCTGTCT | 1
46 | CTACCCAGAA | 1.01

Row | Sequence | switch fluorescence ratio
47 | AAGGCCAACA | 1.02
48 | CTGAGCTTTG | 1
49 | ATCTTCCACA | 1.1
50 | TTATTATGAC | 0.985
51 | AGGGGACGT | 0.992
52 | CATAGCTACG | 1.05
53 | CAGATCACTT | 1
54 | TGACCCGTGA | 1.11
55 | CCGGTTGGTC | 1.02
56 | TGCTGAGCTT | 0.966
57 | ACTAACTGGT | 1.12
58 | GGTCCTATCC | 0.99
59 | CTGATTATGG | 0.967
60 | CGACTTAACT | 1.07
61 | ATCCGGCGTT | 1.02
62 | TAGTGGCGGG | 1.02
63 | CAGTTGCACC | 1.06
64 | CCATGACTGG | 1.01
65 | AGTACGGTAC | 1.28
66 | TGAACTATAT | 0.992
67 | CGGGCCCCTG | 1.02
68 | CTGCAAAGGG | 1.16
69 | AATGGACTAT | 0.985

Row | Sequence | switch fluorescence ratio
70 | CCTTTTGACC | 1.13
71 | CGCTTTGT | 0.988
72 | GTTTGTTTAT | 0.989
73 | ATGAATCCGG | 1.07
74 | TGGATTACGC | 1.08
75 | AATGCCTACG | 1
76 | ATAACTTGCA | 1.03
77 | CGGGTTCCGG | 1.05
78 | ACCGAATCCA | 1.1
79 | TCGCCTTCGA | 0.978
80 | ACTTTAATAG | 1.02
81 | CATCACTGGT | 1.03
82 | ACGTCTCTTG | 0.985
83 | GCACAAGGCT | 1.06
84 | TACTGACGGC | 1.39
85 | AGAGGGTTT | 1.01
86 | TGGCCTCCTG | 1.03
87 | AGGATGGGGC | 1.14
88 | AGACGGAAAT | 1.07
89 | ATTCACAAGC | 1.03
90 | TGCTTGGAGA | 1.02
91 | CTCGGATGAG | 0.939
92 | AGGGCTGGTG | 1.01

Row | Sequence | switch fluorescence ratio
93 | GTCCTTCATA | 0.982
94 | CCCTGATTGA | 0.951
95 | GGCAGTCACT | 1.02
96 | CGCACCCCAT | 1.78
97 | TGTCGAATTA | 0.956
98 | TTGTATTAGA | 1.02
99 | TCGACCGCCT | 1.08
100 | GAGTTTTGAT | 1.03
101 | AGTTAGCGAC | 0.994
102 | GGCGCTCTAT | 0.976
103 | GCGGTCATAA | 0.973
104 | AAGCCTCGCT | 0.974
105 | CTGGGGATAT | 0.996
106 | TCGGTGGTTC | 1.02
107 | CCTTTGTGGT | 1.04
108 | CAATTTAAAT | 0.954
109 | GTCATGTAT | 1.02
110 | GGGGTTGTTC | 0.99
111 | GCAAGAAATA | 1.03
112 | CATACCCTCG | 1.02
113 | ATCTGTGCGG | 1.01
114 | TCTGCGCTAG | 1.17
115 | ATAAACGGAA | 1.09

Row | Sequence | switch fluorescence ratio
116 | CGTTATGTT | 1
117 | CCAAATCACC | 1.06
118 | GTTGTTGGTT | 1.01
119 | CAGGATTATA | 1
120 | GTGGCGAAG | 1
121 | TAACTCGCAA | 2.13
122 | CTTAAAGAGG | 1.01
123 | AACGGGCTAT | 1.03
124 | AAAGAGAGGT | 0.999
125 | CGCGTAGAGT | 1.06
126 | TGGTCGGCTA | 1.08
127 | CCAATGCGGC | 1.44
128 | CTTCGGAAGG | 1.13
129 | TGCACTGGAG | 1.12
130 | TTAAAGGCGG | 1.04
131 | ATCATAGGCC | 1.03
132 | CCATGAACCG | 1.09
133 | TGTATCTGGT | 0.985
134 | AATACAGGC | 1.17
135 | GCCCTCACGA | 1.05
136 | TCATATATTC | 1.01
137 | TATCCGCGTT | 2.23
138 | GATGTAGAGG | 0.945

Row | Sequence | switch fluorescence ratio
139 | ACGGTCCTC | 1.04
140 | TTCAGTTTG | 1.04
141 | ATTGGACGA | 0.992
142 | TGCTAAAGTA | 1
143 | CTTTTGACCC | 1
144 | CCAGCTAGCG | 0.967
145 | AGAGATAGTT | 1.01
146 | GACACGTTGC | 1.12
147 | CTTAGTGGCC | 0.991
148 | TGGCTCTGAA | 1.02
149 | TCAACGGGG | 0.992
150 | GCACGAGTTC | 1.02
151 | CAGGTCTTGT | 0.971
152 | CAACCTTGGC | 1.05
153 | GTTACTAGGG | 1.01
154 | CCTGCATATT | 1.3
155 | AGTTTTTGA | 0.934
156 | TCAATTAAGG | 1.01
157 | GATTAGTTTC | 1.02
